T1: hIL-1R-I (Homo sapiens, UniProt P14778)
T1 construct: purchased R&D Systems 269-1R/CF
T1 sequence (P14778 18-569): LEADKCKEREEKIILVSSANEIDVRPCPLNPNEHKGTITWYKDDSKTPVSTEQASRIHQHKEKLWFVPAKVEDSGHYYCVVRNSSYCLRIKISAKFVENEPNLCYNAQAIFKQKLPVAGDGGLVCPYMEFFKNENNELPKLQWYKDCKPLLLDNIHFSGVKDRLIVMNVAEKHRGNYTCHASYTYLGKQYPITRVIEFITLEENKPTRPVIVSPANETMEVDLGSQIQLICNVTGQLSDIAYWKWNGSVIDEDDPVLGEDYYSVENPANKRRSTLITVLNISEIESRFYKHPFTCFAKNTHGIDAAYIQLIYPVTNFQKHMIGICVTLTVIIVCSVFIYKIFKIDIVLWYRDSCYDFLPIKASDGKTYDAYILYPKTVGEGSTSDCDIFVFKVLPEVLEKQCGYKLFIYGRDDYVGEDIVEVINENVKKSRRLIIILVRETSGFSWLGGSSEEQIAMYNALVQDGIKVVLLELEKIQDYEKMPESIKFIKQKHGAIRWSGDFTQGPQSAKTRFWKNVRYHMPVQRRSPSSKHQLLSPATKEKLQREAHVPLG


Tests used:
[1] = In vivo pharmacokinetics of an IL-1R-I binding fusion protein in monkeys; design: species or system male Cynomolgus monkeys
Method: The IL-1R-I binding fusion protein denoted PS10536 (SEQ ID NO:1648) was constituted as a solution in 25 mM sodium phosphate and 125 mM sodium chloride, pH 7.0.
The pharmacokinetic properties of PS10536 were investigated in naïve male Cynomolgus monkeys. Three monkeys were given an i.v. single dose of 5 mg/kg (1 ml/kg) injected in the tail vein and another three monkeys were given a s.c. single dose of 10 mg/kg (1 ml/kg) injected in the dorsal region. Blood samples for serum preparation were collected pre dosing and at 5 and 20 min, 1, 2, 4, 8, 12, 24, 48, 72, 96, 120, 144, 168, 240 and 504 hrs post i.v. dosing, or 20 min, 1, 2, 4, 8, 12, 24, 48, 72, 96, 120, 144, 168, 240 and 504 hrs post s.c. dosing.
Quantification of PS10536 in serum from monkeys was performed according to the ELISA described in Example 13.
Pharmacokinetic parameters were based on individual serum concentration versus time data and determined using WinNonlin software as described in Example 13. Estimation of the terminal slope following i.v. dosing was based on seven data points, from 72 to 504 hrs. Estimation of the terminal slope following s.c. dosing was based on eight data points, from 48 to 504 hrs. Calculation of the subcutaneous bioavailability (F) was performed using Microsoft Excel.

[2] = In vivo pharmacokinetics of IL-1R-I binding fusion proteins in rats; design: species or system male Sprague-Dawley rats; settings: male rats
Method: The IL-1R-I binding fusion proteins PS10534, PS10535, PS10536, PS10537, PS10538 and PS10539 (see Table 22, SEQ ID NO:1646-1651) were evaluated in this study. All six test items were constituted as a solution in 25 mM sodium phosphate and 125 mM sodium chloride, pH 7.0.
The pharmacokinetic properties of the six fusion proteins were investigated in male Sprague-Dawley rats. For each test item, three rats were given an i.v. single dose of 15 mg/kg (2.5 ml/kg) injected in the lateral tail vein and another three rats were given a s.c. single dose of 30 mg/kg (5 ml/kg) injected in the neck region. Blood samples for serum preparation were collected pre dosing and at 5 and 20 min, 1, 4, 8, 24, 48, 72 and 96 hrs post i.v. dosing, or 20 min, 1, 4, 8, 24, 48, 72, 96 and 120 hrs post s.c. dosing.
Determination of fusion protein levels in rat serum samples was performed by enzyme-linked immunosorbent assay (ELISA). The ELISA assay employed the quantitative sandwich enzyme immunoassay technique.
In brief; a goat polyclonal anti-Z antibody recognizing the Z variant domain of the IL-1R-I binding fusion protein (produced in house, Affibody AB) was coated onto a microplate. Unbound polyclonal antibody was washed away and casein was added as blocking agent to reduce unspecific binding to the plastic surface. After removal of unbound casein by a second wash step, standards and samples were pipetted to the wells and any fusion protein present was bound to the immobilized antibody. After washing away any unbound substances, a HRP labeled Swine anti-rabbit antibody (Dako, cat. no. P0399) was added. Following a wash to remove any unbound anti-rabbit HRP reagent, a substrate solution was added to the wells and color developed in proportion to the amount of fusion protein bound in the initial step. The color development was stopped and the intensity of the color was measured.
The pharmacokinetic analysis was based on median serum concentration versus time data from each dose group. The observed maximum concentration (Cmax) and the time to maximum serum concentration (tmax) were taken directly from the bioanalytical data. Other pharmacokinetic parameters, i.e. clearance (CL), apparent clearance following s.c. administration (CL/F), apparent volume of distribution at steady-state (Vss), mean residence time (MRT) and terminal half-life (t1/2z), were estimated by non-compartmental analysis using Phoenix WinNonlin software version 6.3 (Pharsight Corp., USA). Estimation of the terminal slope following i.v. dosing was based on four data points, from 24 to 96 hrs. Estimation of the terminal slope following s.c. dosing was based on five data points, from 24 to 120 hrs. Calculation of the subcutaneous bioavailability (F) was performed using Microsoft Excel.

[3] = system: cynomolgus IL-1R-I; assay: Biolayer interferometry (BLI) kinetic analysis of Z-Fc fusion proteins, cynomolgus IL-1R-I; format: binding; settings: 25° C.
Method: (§1) Binding of four IL-1R-I binding fusion proteins to human and cynomolgus IL-1R-I was analyzed using BLI. The Fc fused IL-1R-I binding Z variants denoted PS10536, PS10537, PS10534 and PS10535 (SEQ ID NO:1648, 1649, 1646, 1647) were loaded onto a Protein A sensor (Pall, ForteBio cat. no. 18-5010) at 0.5 μg/ml for 150 s in each cycle using an OctetRED96 instrument (Pall, ForteBio). Subsequently, these sensors were exposed to different and increasing concentrations of human IL-1R-I (R&D systems cat. no. 269-1R/CF) ranging from 0.15 to 5 nM or cynomolgus IL-1R-I (SEQ ID NO:1665) ranging from 2.5 to 80 nM. Association was recorded for 300 s and dissociation for 300 s (human) or 90 s (cynomolgus) and spectrograms were recorded and analyzed according to a 1:1 Langmuir model using global fit (Octet System Data Analysis 8.2 software, Pall, ForteBio). Each sensor was referenced to a sensor with the same ligand loaded onto it but exposed to buffer only. Following each association/dissociation cycle, all sensors were regenerated by three pulses of 10 mM glycine at pH 2.5 for 10 s each. All steps were carried out at 25° C. at a shaking speed of 1000 rpm and all dilutions of fusion proteins (Z-Fc fusion proteins) and analytes (human or cynomolgus IL-1R-1) were in 1×kinetics buffer (Pall, ForteBio).

[4] = biological target: T1, hIL-1R-I; assay: Biolayer interferometry (BLI) kinetic analysis of Z-Fc fusion proteins, human IL-1R-I; format: binding; settings: 25° C.
Method: as §1

[5] = biological target: T2, human biotinylated FcRn (Homo sapiens, UniProt P55899); assay: Biacore FcRn affinity analysis; format: binding; settings: five concentrations 2.5-200 nM
T2 construct: purchased Immunitrack ApS

[6] = i.v. single dose 5 mg/kg, male Cynomolgus monkeys
[7] = male monkeys, intravenous single dose 5.04 mg/kg, mean ±SD, n=3
[8] = male monkeys, subcutaneous single dose 10.1 mg/kg, mean ±SD, n=3
[9] = s.c. single dose 10 mg/kg, male Cynomolgus monkeys
[10] = intravenous single dose 15 mg/kg
[11] = subcutaneous single dose 30 mg/kg

koff [4] | kon [4] | Molecule | MRT [2, 10] | Vss [2, 10] | t1/2z [2, 10] | Cmax [2, 11] | F [2, 11] | MRT [2, 11] | Vz/F [2, 11] | t1/2z [2, 11] | tmax [2, 11] | koff [3] | kon [3] | further results
0.000679 s⁻¹ | 899000 M⁻¹ s⁻¹ | PS10536: Fc fused IL-1R-I binding Z variant (Z18754 variant with IgG1 Fc) (protein, Engineered IL-1R-I binding polypeptide) AEAKYAKEVEEIQMEIFRLPNLTRRQYTAFIRKLLDDPSQSSELLSEAKKLSESQAPKASGGGGSGGGGS[sequence of human IgG1 Fc omitted] | 53.5 h | 0.143 L/kg | 44.7 h | 948 nM | 46.7% | 74.5 h | 0.403 L/kg | 46.1 h | 24 h | 0.0234 s⁻¹ | 1.7e+06 M⁻¹ s⁻¹ | mean residence time [1, 6]: 109 h; volume of distribution [1, 6]: 0.117 L/kg; MRT [1, 7]: 109 ± 1 h; Vss [1, 7]: 0.117 ± 0.003 L/kg; t1/2z [1, 7]: 92.7 ± 3.7 h; Cmax [1, 8]: 779 ± 159 nM; F [1, 8]: 73.9 ± 5.5%; MRT [1, 8]: 115 ± 14 h; Vz/F [1, 8]: 0.163 ± 0.023 L/kg; t1/2z [1, 8]: 77.3 ± 6.3 h; tmax [1, 8]: 18.7 ± 7.5 h; half-life [1, 9]: 77.3 h; mean subcutaneous bioavailability [1, 9]: 73.9%; time of peak levels after dosing (average) [1, 9]: 18.7 h
0.00102 s⁻¹ | 841000 M⁻¹ s⁻¹ | PS10537: Fc fused IL-1R-I binding Z variant (protein, Engineered IL-1R-I binding polypeptide) AEAKYAKEVEDIQLEIFALPNLTRRQYTAFIRKLLDDPSQSSELLSEAKKLSESQAPKASGGGGSGGGGS[sequence of human IgG1 Fc omitted] | 65.9 h | 0.136 L/kg | 55.1 h | 1115 nM | 60.3% | 87.4 h | 0.372 L/kg | 55.1 h | 24 h | 0.0548 s⁻¹ | 1.78e+06 M⁻¹ s⁻¹ | 
0.000421 s⁻¹ | 583000 M⁻¹ s⁻¹ | PS10535: Fc fused IL-1R-I binding Z variant (protein, Engineered IL-1R-I binding polypeptide) AEAKYAKEIEEIQMEIFHLPNLTRRQYTAFIRKLLDDPSQSSELLSEAKKLSESQAPKASGGGGSGGGGS[sequence of human IgG1 Fc omitted] | 62.1 h | 0.149 L/kg | 52.1 h | 866 nM | 49.6% | 87.3 h | 0.457 L/kg | 55.6 h | 24 h | 0.0166 s⁻¹ | 1.49e+06 M⁻¹ s⁻¹ | 
 |  | PS10654: fusion of Z18754 with mutated IgG1 Fc, N297A and LS mutations (protein, LS mutations; Engineered IL-1R-I binding polypeptide) AEAKYAKEVEEIQMEIFRLPNLTRRQYTAFIRKLLDDPSQSSELLSEAKKLSESQAPKASGGGGSGGGGSDKTHTCPPCPAPELLGGPSVFLFPPKPKDTLMISRTPEVTCVVVDVSHEDPEVKFNWYVDGVEVHNAKTKPREEQYASTYRVVSVLTVLHQDWLNGKEYKCKVSNKALPAPIEKTISKAKGQPREPQVYTLPPSRDELTKNQVSLTCLVKGFYPSDIAVEWESNGQPENNYKTTPPVLDSDGSFFLYSKLTVDKSRWQQGNVFSCSVLHEALHSHYTQKSLSLSPGK |  |  |  |  |  |  |  |  |  |  |  | affinity towards FcRn (order / change) ([5]; listed as SEQ ID NO 1735): SEQ ID NO 1735>SEQ ID NO 1736>SEQ ID NO 1734=SEQ ID NO 1737; affinity towards FcRn (order / change) ([5]; listed as SEQ ID NO:1735): greatest increase
 |  | PS10655: fusion of Z18754 with mutated IgG1 Fc, N297A and YTE mutations (protein, YTE mutations; Engineered IL-1R-I binding polypeptide) AEAKYAKEVEEIQMEIFRLPNLTRRQYTAFIRKLLDDPSQSSELLSEAKKLSESQAPKASGGGGSGGGGSDKTHTCPPCPAPELLGGPSVFLFPPKPKDTLYITREPEVTCVVVDVSHEDPEVKFNWYVDGVEVHNAKTKPREEQYASTYRVVSVLTVLHQDWLNGKEYKCKVSNKALPAPIEKTISKAKGQPREPQVYTLPPSRDELTKNQVSLTCLVKGFYPSDIAVEWESNGQPENNYKTTPPVLDSDGSFFLYSKLTVDKSRWQQGNVFSCSVMHEALHNHYTQKSLSLSPGK |  |  |  |  |  |  |  |  |  |  |  | affinity towards FcRn (order / change) ([5]; listed as SEQ ID NO 1736): SEQ ID NO 1735>SEQ ID NO 1736>SEQ ID NO 1734=SEQ ID NO 1737; affinity towards FcRn (order / change) ([5]; listed as SEQ ID NO:1736): increased affinity
